The results in this text go back to the supplement of paper PMC11417369.

± gives the standard deviation of the averaged measurements. Some of the results follow.

In the assay the test system is PfAP2-I AP2 domain 3 (GST-tagged). Description: gcPBM binding intensity (ln(normalized median fluorescence intensity)); higher = stronger DNA binding. The method in brief:
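Plasmodium falciparum DNA-binding domains carrying a GST tag were expressed in E. coli and applied for 1 h, at about 25 μg on average, to an Agilent 4 × 180k array. The array held primer-extended double-stranded 36-bp intergenic genomic probes together with negative controls, and binding took place in 1× PBS with 1% milk, 0.2 mg/ml BSA, 0.5% salmon testes DNA and 0.03% Triton X-100. An Alexa488 anti-GST antibody detected bound protein, and the array was scanned at 488 nm. Binding intensity is taken as the highest Masliner-normalised natural-log median intensity across replicate spots of either probe orientation.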
Consider “TTTCGAAAAACAACAAGAAAAAAAAAAAAAAAAAAA [XGTACX_negctrl_site449]”, for which the “gcPBM binding intensity (ln)” value is 8.14 ± 0.73. Regarding “TCACATACATTACTTACACACCATATTGATATATAC [CACACA_site6353]”, the “gcPBM binding intensity (ln)” value turned out to be 8.14 ± 0.69. Regarding “CAAAATATTTATATCACACATATAAATAAAAATAAA [CACACA_site6028]”, the “gcPBM binding intensity (ln)” value amounted to 7.59 ± 0.43.

With “ATTAACATTTTCGTATGTACATATATAATATATGTT [XGTACX_site7184]”, the “gcPBM binding intensity (ln)” value came out at 8.05 ± 0.32.

Regarding “TTTCCAAATACAACTACACACAAACAAAAATTATAT [CACACA_site4641]”, the “gcPBM binding intensity (ln)” value was 7.92 ± 0.63. As for “ATGTTTATTTATTTATGTACTTATATATTTATATAT [XGTACX_site7924]”, the “gcPBM binding intensity (ln)” value came out at 7.97 ± 0.41. For “AATAAAAATAAAAATTGTACACTTTTTTAATATTTA [XGTACX_site892]”, the “gcPBM binding intensity (ln)” value amounted to 7.53 ± 0.34. On to “AATGTGCACACGCGTACACACAAAAAAAGAAAAAAA [CACACA_site7031]”, for which the “gcPBM binding intensity (ln)” value is 9.31 ± 0.31. With “TATTATTTGAGTAGTTGTACTCATTAATATATAAAA [XGTACX_site3468]”, the “gcPBM binding intensity (ln)” value came out at 7.63 ± 0.46. “TATTAATTTCACCTTTCACATATGGAAAAAAAAAAA [CACACA_negctrl_site1243]”: the “gcPBM binding intensity (ln)” value was 7.96 ± 0.62. For the sequence “AAGAAAAAGACTTCATGAAAAAGAATTTTTTTAATT [TGCATGCA_negctrl_site473]”, the “gcPBM binding intensity (ln)” value turned out to be 7.36 ± 0.76. As for “TTATAATCAATGAATACACACATATATTTAATTAAT [CACACA_site3613]”, the “gcPBM binding intensity (ln)” value was 7.45 ± 0.53. As for AATTTTCCATAGATTGTGCACAAATTTTTATTTTGT, the figure is 10.9 ± 0.2; as for “ATATATTTTTTTTTTATTTTATTATTATAATTTATC [XGTACX_negctrl_site16]”, 7.58 ± 0.69; as for “ATTTTATTTTTTTGAAGTACGAATTCCGAGAAGAAA [XGTACX_site43]”, 8.02 ± 0.22. As for “TATTCAAAAATATAAACAATGAAACAGTATAATATG [CACACA_negctrl_site1482]”, the figure is 7.75 ± 0.54. As for “TATAGTTCTTCTATTTGTACATATATTATTATTTAA [XGTACX_site895]”, the figure is 7.73 ± 0.48; as for “ATATATCAAGGGAGTGAATGTTATGCATATGAATAT [TGCATGCA_negctrl_site573]”, 7.82 ± 0.83; as for “AATAAATTAAATAAAAATGTTTAACATAAAATATGA [GTGCAC_negctrl_site373]”, 7.5 ± 0.42. For “GGATATTATATAAAGTGTACAAGACAAATATATACA [XGTACX_site8173]”, the “gcPBM binding intensity (ln)” value amounted to 7.85 ± 0.47. As for “AAATTAACAAACTGTAGTACTAACAATATATACAAA [XGTACX_site1772]”, the figure is 7.84 ± 0.49; as for “ATTATAATTATCAAGGTGCGTGTATTATAATAAATA [GTGCAC_site9917]”, 8.64 ± 0.33. The value for “TAATATAATAATAATTGTACTTTTCATAGTGTAATT [XGTACX_site8152]” was 7.64 ± 0.36; that for “AAAAAAAAAAAACACACACACAAAATAAACAAACAA [CACACA_site2721]” was 7.92 ± 0.28. Consider “AAAGAAATGAAATATACACACATACATATATACATA [CACACA_site9335]”, for which the “gcPBM binding intensity (ln)” value turned out to be 7.54 ± 0.5.

On to “AATTAAAAAAGTAATTAACACACAATAATGTAATGC [CACACA_site9388]”, for which the “gcPBM binding intensity (ln)” value was determined as 7.75 ± 0.68. As for “GTTCTGTAAATACGTGCACACACAAATCACAAATGT [CACACA_site7999]”, the figure is 10.7 ± 0.16; as for “TTTTTTTTCTTTTTTTGTACATAATAATATATAAAT [XGTACX_site6778]”, 7.68 ± 0.35. On to “GATATATTTTATATATGTACATACAATGGTAAATAT [XGTACX_site2759]”, for which the “gcPBM binding intensity (ln)” value worked out at 7.97 ± 0.54. The value for “TATTCTTACAAAAGTAGTACAATCATTCATATTTTT [XGTACX_site631]” was 7.76 ± 0.3; that for “AAAAATGAAAAATGAAAAATGAAAAATGAAAAATAA [CACACA_negctrl_site695]” was 7.87 ± 0.24.

Consider “TAGTTTCAAGTAGGACGTACATATAAAAGGATTTTT [XGTACX_site7136]”, for which the “gcPBM binding intensity (ln)” value was 7.91 ± 0.57. As for TATATATATATAATTGTGCACATAATTTTAAACCAA, the figure is 11.1 ± 0.13; as for “TATGTGTGAAAAAAATGTACATATATATAAATTATA [XGTACX_site7202]”, 7.88 ± 0.36; as for “ATATATATATATAATAGTACATATATTTTGAAAGAT [XGTACX_site5800]”, 8.96 ± 0.13. The value for “AACTGTAAAAAATATAAACACACATAGAAATATATA [CACACA_site8002]” was 7.66 ± 0.61; that for “TATTTTACACATTTACGTACATAAATATATATATAT [XGTACX_site8788]” was 9.175 ± 0.064; that for “TACGCACAAAAATATACACACACACCGATATATTTA [CACACA_site9213]” was 7.78 ± 0.42.

Consider “AGACATTTTTAAGCAAAACATTCATCATCTTATAAT [CACACA_negctrl_site1539]”, for which the “gcPBM binding intensity (ln)” value amounted to 7.76 ± 0.63. Regarding “CTAACAACCAAACGCACACACACAAAAAAAAAAATA [CACACA_site400]”, the “gcPBM binding intensity (ln)” value is 8.625 ± 0.049. For the sequence “TTTGAAATGATATATAAACACACATATATATATATA [CACACA_site9170]”, the “gcPBM binding intensity (ln)” value was 9.52 ± 0.18. The value for “AACAACTATTAATTTACACACATGTATATATCTTAC [CACACA_site7459]” was 7.88 ± 0.79; that for “TATTAAAAGGTGAGTACACACATATATGCGTATATA [CACACA_site2102]” was 7.99 ± 0.19; that for “ATATTGAATTCCAACACATGCAAAACTTTCGGTTTT [TGCATGCA_site485]” was 7.79 ± 0.6.
